Test results: publication PMC10890935
These are yes or no findings as the source states them, for the method shown. Some results given as binding are weak or reduced against the parent protein; the word gives no strength. Sequences can lack the tags named with a protein.

T1: PpaA fused to the T18 or T25 fragment of adenylate cyclase (BACTH) (Dinoroseobacter shibae) (UniProt A8LQ25)
T1 sequence: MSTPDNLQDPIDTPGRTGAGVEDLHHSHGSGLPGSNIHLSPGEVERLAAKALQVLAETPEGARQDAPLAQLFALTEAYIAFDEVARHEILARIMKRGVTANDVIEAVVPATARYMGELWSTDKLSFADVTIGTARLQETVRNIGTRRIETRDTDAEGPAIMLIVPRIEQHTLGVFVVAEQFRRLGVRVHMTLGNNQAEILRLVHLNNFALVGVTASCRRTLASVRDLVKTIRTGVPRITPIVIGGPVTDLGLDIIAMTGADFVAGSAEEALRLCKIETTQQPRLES

T2: PpsR fused to the T18 or T25 fragment of adenylate cyclase (BACTH) (Dinoroseobacter shibae) (UniProt A8LQ24)
T2 sequence: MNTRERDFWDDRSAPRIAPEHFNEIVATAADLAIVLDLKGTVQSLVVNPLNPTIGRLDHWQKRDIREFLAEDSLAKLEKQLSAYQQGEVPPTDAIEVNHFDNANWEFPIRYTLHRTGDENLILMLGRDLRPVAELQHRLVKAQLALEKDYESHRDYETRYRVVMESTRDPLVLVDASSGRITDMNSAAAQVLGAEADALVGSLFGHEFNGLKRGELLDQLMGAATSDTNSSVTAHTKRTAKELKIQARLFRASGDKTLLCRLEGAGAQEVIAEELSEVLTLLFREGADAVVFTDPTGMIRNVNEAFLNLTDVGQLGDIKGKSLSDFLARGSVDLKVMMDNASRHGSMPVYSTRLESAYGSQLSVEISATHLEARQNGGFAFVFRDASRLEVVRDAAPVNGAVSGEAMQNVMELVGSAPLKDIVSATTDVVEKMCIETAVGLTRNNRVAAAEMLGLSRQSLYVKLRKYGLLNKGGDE

B1: PpaA fused to the T18 or T25 fragment of adenylate cyclase (BACTH) (protein, UniProt A8LQ25 1-286)
chain: MSTPDNLQDPIDTPGRTGAGVEDLHHSHGSGLPGSNIHLSPGEVERLAAKALQVLAETPEGARQDAPLAQLFALTEAYIAFDEVARHEILARIMKRGVTANDVIEAVVPATARYMGELWSTDKLSFADVTIGTARLQETVRNIGTRRIETRDTDAEGPAIMLIVPRIEQHTLGVFVVAEQFRRLGVRVHMTLGNNQAEILRLVHLNNFALVGVTASCRRTLASVRDLVKTIRTGVPRITPIVIGGPVTDLGLDIIAMTGADFVAGSAEEALRLCKIETTQQPRLES
B2: PpsR fused to the T18 or T25 fragment of adenylate cyclase (BACTH) (protein, UniProt A8LQ24 1-476)
chain: MNTRERDFWDDRSAPRIAPEHFNEIVATAADLAIVLDLKGTVQSLVVNPLNPTIGRLDHWQKRDIREFLAEDSLAKLEKQLSAYQQGEVPPTDAIEVNHFDNANWEFPIRYTLHRTGDENLILMLGRDLRPVAELQHRLVKAQLALEKDYESHRDYETRYRVVMESTRDPLVLVDASSGRITDMNSAAAQVLGAEADALVGSLFGHEFNGLKRGELLDQLMGAATSDTNSSVTAHTKRTAKELKIQARLFRASGDKTLLCRLEGAGAQEVIAEELSEVLTLLFREGADAVVFTDPTGMIRNVNEAFLNLTDVGQLGDIKGKSLSDFLARGSVDLKVMMDNASRHGSMPVYSTRLESAYGSQLSVEISATHLEARQNGGFAFVFRDASRLEVVRDAAPVNGAVSGEAMQNVMELVGSAPLKDIVSATTDVVEKMCIETAVGLTRNNRVAAAEMLGLSRQSLYVKLRKYGLLNKGGDE

Experiments:
[1] = target: T1, PpaA fused to the T18 or T25 fragment of adenylate cyclase (BACTH) (Dinoroseobacter shibae); assay: two-hybrid; Bacterial adenylate cyclase two-hybrid (BACTH) in E. coli BTH101, N- and C-terminal T18 and T25 fusions in all combinations, grown in the dark, no hydroxy cobalamin added; blue colour on LB/X-Gal/IPTG plates and β-galactosidase activity of overnight cultures in 96 well plates
[2] = target: T2, PpsR fused to the T18 or T25 fragment of adenylate cyclase (BACTH) (Dinoroseobacter shibae); assay: condition: only without hydroxy cobalamin in the medium; two-hybrid; Bacterial adenylate cyclase two-hybrid (BACTH) in E. coli BTH101, N- and C-terminal T18 and T25 fusions in all combinations, grown in the dark, no hydroxy cobalamin added; blue colour on LB/X-Gal/IPTG plates and β-galactosidase activity of overnight cultures in 96 well plates
[3] = target: T1, PpaA fused to the T18 or T25 fragment of adenylate cyclase (BACTH) (Dinoroseobacter shibae); assay: two-hybrid; BACTH in E. coli BTH101 as a3, with 15 nM hydroxy cobalamin (vitamin B12) in the medium; blue colour on X-Gal plates and β-galactosidase activity of overnight cultures
[4] = target: T1, PpaA fused to the T18 or T25 fragment of adenylate cyclase (BACTH) (Dinoroseobacter shibae); assay: condition: only T18 and T25 both fused N-terminally or both C-terminally; two-hybrid; Bacterial adenylate cyclase two-hybrid (BACTH) in E. coli BTH101, N- and C-terminal T18 and T25 fusions in all combinations, grown in the dark, no hydroxy cobalamin added; blue colour on LB/X-Gal/IPTG plates and β-galactosidase activity of overnight cultures in 96 well plates
[5] = target: T2, PpsR fused to the T18 or T25 fragment of adenylate cyclase (BACTH) (Dinoroseobacter shibae); assay: two-hybrid; Bacterial adenylate cyclase two-hybrid (BACTH) in E. coli BTH101, N- and C-terminal T18 and T25 fusions in all combinations, grown in the dark, no hydroxy cobalamin added; blue colour on LB/X-Gal/IPTG plates and β-galactosidase activity of overnight cultures in 96 well plates
[6] = target: T1, PpaA fused to the T18 or T25 fragment of adenylate cyclase (BACTH) (Dinoroseobacter shibae); assay: condition: only without hydroxy cobalamin in the medium; two-hybrid; Bacterial adenylate cyclase two-hybrid (BACTH) in E. coli BTH101, N- and C-terminal T18 and T25 fusions in all combinations, grown in the dark, no hydroxy cobalamin added; blue colour on LB/X-Gal/IPTG plates and β-galactosidase activity of overnight cultures in 96 well plates
[7] = target: T2, PpsR fused to the T18 or T25 fragment of adenylate cyclase (BACTH) (Dinoroseobacter shibae); assay: two-hybrid; BACTH in E. coli BTH101 as a3, with 15 nM hydroxy cobalamin (vitamin B12) in the medium; blue colour on X-Gal plates and β-galactosidase activity of overnight cultures

Binder	binding [1]	binding [2]	binding [3]	binding [4]	binding [5]	binding [6]	binding [7]
B1	binds	no binding	binds	no binding	–	–	–
B2	–	–	–	–	binds	no binding	binds
